Measurements from article PMC2172719 (The Journal of Cell Biology, 2003).

Target: the molecule itself
Experiment: SEC

Protein	stoichiometry N
His-tagged p97 AK mutant (enzyme) not shown	6
His-tagged p97 KA mutant (enzyme) not shown	6
His-tagged p97 AA mutant (enzyme) not shown	6
His-tagged p97 QE mutant (enzyme) not shown	6
His-tagged p97 EQ mutant (enzyme) not shown	6
His-tagged p97 QQ mutant (enzyme) not shown	6
